Data as given in PubChem BioAssay AID588342 (National Center for Advancing Translational Sciences (NCATS), 2011).
“And” between values parts separate entries of the source, which are not always exact repeats. Equal entries are not always repeated. In all, about 360,000 compounds went through this assay and about 25,000 (6.9%) were called active. The inconclusive results got no clear call from the source; some entries with a clear call stand among them for comparison. The call rests on the fitted dose curve; in most records, active means well fitted inhibition curve with a large enough effect; inconclusive means small, poorly fitted or top-dose-only effect; inactive means flat fitted curve, though single readings scatter. Potencies of inconclusive entries are doubtful fits and often do not repeat.

target: Luciferin 4-monooxygenase (Photinus pyralis) (UniProt P08659); test: qHTS profiling assay for firefly luciferase inhibitor/activator using purifed enzyme and Km concentrations of substrates (counterscreen for miR-21 project); conditions: purified FLuc, luminescence inhibition; series mostly up to 57.5 µM; further: nearly all actives have a fitted effect of over 55% in size
Summary of the method: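 Biochemical qHTS of compounds, final roughly 60 µM downward over six points, against 10 nM purified firefly luciferase using Km concentrations of substrates (10 uM D-luciferin, 10 uM ATP) in Tris acetate pH 7.5 buffer; luminescence output.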
Potency means the concentration at half of the fitted maximal effect; tags describe the fitted curve by direction and shape.

Sequence of UniProt P08659 (P08659 whole entry, looked up): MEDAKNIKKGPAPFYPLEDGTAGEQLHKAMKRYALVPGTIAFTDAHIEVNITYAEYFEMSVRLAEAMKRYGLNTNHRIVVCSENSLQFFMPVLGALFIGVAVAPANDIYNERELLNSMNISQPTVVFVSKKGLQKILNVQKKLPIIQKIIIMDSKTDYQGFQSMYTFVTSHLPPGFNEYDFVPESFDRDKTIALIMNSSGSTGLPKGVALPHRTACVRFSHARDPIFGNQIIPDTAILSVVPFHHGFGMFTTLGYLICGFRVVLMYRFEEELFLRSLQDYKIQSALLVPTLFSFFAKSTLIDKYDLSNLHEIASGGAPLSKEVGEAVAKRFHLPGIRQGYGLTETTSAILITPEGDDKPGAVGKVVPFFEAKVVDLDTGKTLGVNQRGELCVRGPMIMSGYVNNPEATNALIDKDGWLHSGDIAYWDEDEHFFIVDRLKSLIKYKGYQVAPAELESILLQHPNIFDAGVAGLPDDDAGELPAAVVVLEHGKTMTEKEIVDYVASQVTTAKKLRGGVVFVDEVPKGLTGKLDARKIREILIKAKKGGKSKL

Row | SMILES | Potency
1 | CCS(=O)(=O)NCCc1sc2nc(-c3ccc(OC)cc3)nn2c1C | inconclusive: 16.9 µM [inhibitor, partial curve]
2 | CCCCOC(=O)c1cccc(NC(=O)CC)c1 | inconclusive: 26.9 µM [inhibitor, partial curve, poor fit]
3 | COc1cccc(C(=O)/C=C/Nc2cccc(O)c2)c1 | active: 0.213 µM
4 | O=C1NC(=O)/C(=C\c2ccc(Br)o2)S1 | inconclusive: 23.9 µM [inhibitor, single point]
5 | COC(=O)c1c(C)c(C)nc(N)c1C#N | inconclusive: 30.1 µM [inhibitor, single point]
6 | Cc1ccccc1NC(=S)N/N=C/C(C)c1ccccc1 (configuration not stated) | inactive
7 | COCCNS(=O)(=O)c1cc(-c2nn3c(C)nnc3c3ccccc23)ccc1C | inactive
8 | O=C(Oc1ccc(-c2csnn2)cc1)c1cccs1 | active: 2.39 µM
9 | CC(=O)Oc1cccc(/C=C2\Sc3ccccc3C2=O)c1 | active: 1.69 µM
10 | Cc1cccc(NC(=O)Nc2cnccn2)c1 | inconclusive: 37.9 µM [inhibitor, partial curve, poor fit]
11 | COc1cccc(C(=O)Nc2nc(-c3nnn(-c4cc(C)ccc4C)c3C)ns2)c1 | inconclusive: 16.9 µM [inhibitor, partial curve]
12 | N#Cc1c(-n2ncnc2-c2cccc(Cl)c2)sc2c1CCCCC2 | active: 1.51 µM
13 | Brc1ccc(-c2csc(N/N=C/c3cccnc3)n2)cc1 | inconclusive: 12 µM [inhibitor, partial curve, poor fit]
14 | COc1ccc(S(=O)(=O)N(C)CC(=O)NC2CC2)cc1 | inactive
15 | Cc1cc(C)nc(OC(=O)c2c(Cl)cc(Cl)cc2Cl)n1 | inconclusive: 37.9 µM [inhibitor, partial curve, poor fit]
16 | O=c1[nH]nc(N2CCOCC2)c(=O)[nH]1 | inactive
17 | O=C(O)C1C2C=CC(C2)C1C(=O)Nc1cccc(C(F)(F)F)c1 (configuration not stated) | inactive
18 | Cc1ccc(/C=C/C(=O)NC(C)c2ccccc2)cc1 (configuration not stated) | inconclusive: 10.7 µM [inhibitor, partial curve]
19 | O=C(CCC(=O)N1CCN(S(=O)(=O)c2ccccc2Cl)CC1)c1ccccc1 | inactive
20 | COC(=O)c1cccc(NC(=O)CSc2nnc(COc3ccc(C#N)cc3)n2-c2ccccc2)c1 | inactive
21 | Cc1nnc(Oc2ccccc2)c2ccccc12 | inconclusive: 26.9 µM [inhibitor, single point]
22 | CCS(=O)(=O)c1ccc2oc(Nc3cc(C)cc(C)c3)nc2c1 | inactive
23 | COc1ccc(-c2cc(C(=O)NC(C)C)no2)cc1 | active: 5.36 µM
24 | O=C(O)CCC(=O)N1CC=C(c2ccccc2)CC1 | inconclusive: 37.9 µM [inhibitor, partial curve, poor fit]

Row | SMILES | Potency
25 | Cc1ccc(S(=O)(=O)N2CCCC(C(=O)NCCc3ccc(S(N)(=O)=O)cc3)C2)cc1 (configuration not stated) | inactive
26 | O=C(Nc1ccccc1Cl)c1ccc2nsnc2c1 | active: 19 µM
27 | Cc1c(C(=O)Nc2ccc(S(=O)(=O)Nc3ncccn3)cc2)oc2ccccc12 | inconclusive: 16.9 µM [inhibitor, partial curve]
28 | Cc1cc(NCCCn2ccnc2)n2nc(-c3ccc(Cl)cc3)cc2n1 | inconclusive: 12 µM [inhibitor, partial curve, poor fit]
29 | CSc1ccccc1NC(=O)Nc1cccc(F)c1 | active: 21.3 µM
30 | COc1cc(NC(=O)COc2cccc(OC)c2)cc(OC)c1 | inconclusive: 21.3 µM [inhibitor, partial curve, poor fit]
31 | Cn1c(COc2ccccc2C(C)(C)C)nc2ccccc21 | inconclusive: 19 µM [inhibitor, partial curve, poor fit]
32 | COCCSc1ccccc1C(=O)Nc1ccc2c(c1)OCCO2 | inconclusive: 23.9 µM [inhibitor, partial curve, poor fit]
33 | COc1ccc(N2C(=S)NC3N2C(=S)NC3(C)c2ccccc2)cc1 (configuration not stated) | inconclusive: 19 µM [inhibitor, partial curve]
34 | O=C1/C(=C/c2cccnc2)SC(=S)N1CCc1ccccc1 | active: 10.7 µM
35 | Cc1ccccc1-c1nnc(SCC#N)o1 | inactive
36 | O=C(CSc1nnc(SCc2ccccc2)s1)N/N=C/C=C/c1ccco1 | inconclusive: 15.1 µM [inhibitor, partial curve, poor fit]
37 | O=C(c1ccc(NS(=O)(=O)/C=C/c2ccccc2)cc1)N1CCCCC1 | inactive
38 | CC(NC(=O)/C(C#N)=C/c1ccc(Cl)c([N+](=O)[O-])c1)c1ccccc1 (configuration not stated) | inconclusive: 26.9 µM [inhibitor, partial curve, poor fit]
39 | Cc1ccsc1C(=O)Nc1ccc(O)c(-c2nc3ccccc3s2)c1 | inconclusive: 9.53 µM [inhibitor, partial curve]
40 | O=C(NN=C1CCN(Cc2ccccc2)CC1)c1cc2ccccc2cc1O | inconclusive: 21.3 µM [inhibitor, partial curve, poor fit]
41 | O=C(NCc1cccnc1)c1ccc(-c2cc3ccccc3oc2=O)cc1 | inconclusive: 10.7 µM [inhibitor, partial curve]
42 | COc1cc(OC)cc(-c2nc3ccccc3c(=O)o2)c1 | inconclusive: 7.57 µM [inhibitor, partial curve, poor fit]
43 | Cc1ccc2nc(-c3ccc(NC(=O)COC(=O)c4ccc(=O)[nH]c4)cc3)sc2c1 | active: 3.38 µM
44 | N=C1SCC(=O)N1c1ncc(Cc2cccc(Cl)c2)s1 | inconclusive: 21.3 µM [inhibitor, partial curve, poor fit]
45 | CC(=O)c1sc(Nc2nc3ccc(F)cc3s2)nc1C | active: 3.38 µM
46 | COc1cccc(CC(=O)Nc2ccc3nc(C)sc3c2)c1 | active: 16.9 µM
47 | O=C(CCN1C(=O)S/C(=C\c2ccccc2)C1=O)Nc1ccc(O)cc1C(=O)O | inconclusive: 30.1 µM [inhibitor, partial curve, poor fit]
48 | Oc1c(Cl)cc(Cl)c2cccnc12 | inconclusive: 13.5 µM [inhibitor, partial curve, poor fit]

Row | SMILES | Potency
49 | CCN(CC)S(=O)(=O)c1cccc(C(=O)N/N=C/c2ccccn2)c1 | inconclusive: 26.9 µM [inhibitor, single point]
50 | Cc1cccc(-n2cnc(C(=O)Nc3cccnc3)c2)n1 | active: 10.7 µM
51 | Cc1cc(C)n2c(Nc3ccc4c(c3)OCCO4)c(-c3ccccc3)nc2n1 | inconclusive: 30.1 µM [inhibitor, single point] and inconclusive: 21.3 µM [inhibitor, partial curve, poor fit]
52 | O=C1C2CC=CCC2C(=O)N1Cc1nnc(-c2ccccc2Br)o1 (configuration not stated) | inconclusive: 37.9 µM [inhibitor, partial curve, poor fit]
53 | CC(=O)c1cccc(NC(=O)Nc2cccnc2)c1 | inconclusive: 21.3 µM [inhibitor, partial curve, poor fit]
54 | COc1ccc(/C=C/C(=O)Nc2cc(-c3nc4ccccc4o3)ccc2OC)cc1 | inconclusive: 7.57 µM [inhibitor, partial curve, poor fit]
55 | COc1ccccc1/C(C)=N/Oc1cc(N)cc([N+](=O)[O-])c1 | inconclusive: 26.9 µM [inhibitor, single point]
56 | Cc1ccc(S(=O)(=O)c2[nH]c(-c3ccccc3)nc2SC(C)C(=O)O)cc1 (configuration not stated) | inconclusive: 12 µM [inhibitor, partial curve]
57 | CCN(CC)CCN(C(=O)c1cc(Cl)sc1Cl)c1nc2cc3c(cc2s1)OCO3 | inconclusive: 37.9 µM [inhibitor, partial curve, poor fit]
58 | O=C(c1ccccc1)N1CCC(c2nc3ccccc3o2)CC1 | inactive
59 | COc1ccccc1C(=O)NCC(=O)N/N=C/c1ccc2c(c1)OCO2 | active: 16.9 µM
60 | O=C(N/N=C/C(Cl)=C/c1ccc([N+](=O)[O-])cc1)C(=O)Nc1cccc(C(=O)O)c1 | active: 23.9 µM
61 | COc1ccc(CCNC(=O)c2cnn(-c3cccc(C)c3)c2C2CCNCC2)cc1OC | inactive
62 | CN1C(=O)/C(=C/c2cn(CC(=O)N3CCCCC3)c3ccccc23)NC1=S | inactive
63 | O=C(COC(=O)C1CC1)NCCc1ccc(Cl)cc1 | inactive
64 | O=C(N/N=C/c1cc(Br)c(O)c(Br)c1)c1cccc(C(F)(F)F)c1 | inconclusive: 23.9 µM [inhibitor, partial curve, poor fit]
65 | COc1ccc(OC)c(CNS(=O)(=O)c2cc(-c3onc(C)c3C)ccc2C)c1 | inactive
66 | COc1cc(/C=N/NC(=O)c2ccncc2)ccc1O | inactive
67 | CC(OC(=O)Cc1coc2cc3c(cc12)CCC3)C(=O)NCc1ccc2c(c1)OCO2 (configuration not stated) | inconclusive: 37.9 µM [inhibitor, partial curve, poor fit]
68 | O=C1c2ccccc2C(=O)C1c1ccncc1 | active: 3.38 µM
69 | O=C(CCCOc1ccc(Cl)cc1)NC1CCCCC1 | inactive
70 | CCOc1ccccc1C(=O)Nc1cc(C(=O)NCCc2ccccc2)ccc1Cl | inconclusive: 10.7 µM [inhibitor, partial curve]
71 | O=[N+]([O-])c1ccc(S(=O)(=O)Nc2ccc(-c3csc(-c4ccccc4)n3)cc2)cc1 | inconclusive: 26.9 µM [inhibitor, partial curve, poor fit]
72 | CC(C)(C)c1ccc(OCC(=O)O)cc1 | inconclusive: 21.3 µM [inhibitor, single point] and inconclusive: 21.3 µM [inhibitor, partial curve, poor fit]
